Measured values reported in PubChem BioAssay AID2675 (National Center for Advancing Translational Sciences (NCATS), 2010).
Screen size: about 280,000 compounds; about 100 (0.036%) were called active. Inconclusive results, whose numbers are uncertain, are shown with a selection of clear calls. The call rests on the fitted dose curve; in most records, active means well fitted inhibition curve with a large enough effect in the signal ratio, with a control signal flat (not every such curve was filed as active); inconclusive means small, poorly fitted or top-dose-only effect, or effect the other way, or a change in a side signal; inactive means no such curve, though single readings can be large or run the other way; the % refers to the signal ratio. A potency beside an inconclusive call is a rough fit, not a confirmed value. A note “side channel” means that the fit belongs to a control or component signal, not to the main read-out.

Each molecule was assayed against Muscleblind-like protein 1 (Homo sapiens) (UniProt Q9NR56) (assay: qHTS Assay for Inhibitors of MBNL1-poly(CUG) RNA binding). Conditions: TR-FRET MBNL1-His/biotin-(CUG)12 binding, 665/545 ratio; activity change, negative = inhibition: at 57.5 µM (top of the series).
Procedure, shortened: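 His-tagged MBNL1 binding to biotinylated (CUG)12 RNA was measured by TR-FRET using terbium anti-His antibody (0.055 ng/ul final) and streptavidin-XL665 (5 nM final). Compounds were titrated 92 nM to 58 uM; 60 min at room temperature.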
On the % scale 0 is the no-effect control and ±100 the full control effect; potency means the concentration at half of the fitted maximal effect; tags describe the fitted curve by direction and shape or compound fluorescence and quenching.

Chain of UniProt Q9NR56 (Q9NR56 whole entry, looked up): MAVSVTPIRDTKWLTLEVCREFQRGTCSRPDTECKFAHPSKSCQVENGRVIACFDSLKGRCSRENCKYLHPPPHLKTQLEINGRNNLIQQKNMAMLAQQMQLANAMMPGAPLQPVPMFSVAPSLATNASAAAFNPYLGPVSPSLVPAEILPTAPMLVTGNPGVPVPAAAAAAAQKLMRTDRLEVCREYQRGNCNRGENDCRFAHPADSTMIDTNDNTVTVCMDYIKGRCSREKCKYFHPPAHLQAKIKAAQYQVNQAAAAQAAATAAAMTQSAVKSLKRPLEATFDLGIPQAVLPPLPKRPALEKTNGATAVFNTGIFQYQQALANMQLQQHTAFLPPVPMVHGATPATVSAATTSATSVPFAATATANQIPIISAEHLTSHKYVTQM

Row | Compound | Potency | activity change, negative = inhibition
1 | COc1ccccc1NC(=S)Nc1ccccc1F | inconclusive: 39.8 µM [quencher, side channel, single point] | –
2 | CO/N=C/c1ccc(N2CCN(C(=O)c3ccc(C)cc3)CC2)c([N+](=O)[O-])c1 | inconclusive: 20 µM [quencher, partial curve] | –
3 | CCOc1ccc(OCC)c(-c2c(=O)n(OCc3ccccc3Br)c3ccccc3[n+]2[O-])c1 | inconclusive: 39.8 µM [quencher, side channel, single point] | –
4 | CC1=NOC2(C1)N(C)c1ccccc1C2(C)C (centres undefined) | inactive | –
5 | O=[N+]([O-])c1ccc(Cl)cc1CN1CCCCCC1 | inconclusive: 17.8 µM [quencher, side channel, partial curve] | –
6 | Cc1ccccc1NC(=O)C1CC(=O)OC12CCOC(C)(C)C2 (centres undefined) | inconclusive: 10 µM [inhibitor, single point] | –
7 | Cc1c(C2C(C#N)=C(N)N(c3cccc([N+](=O)[O-])c3)C3=C2C(=O)CCC3)cnn1C (centres undefined) | inconclusive: 12.6 µM [quencher, side channel, partial curve] | –
8 | CCOc1ccc(/C=N/NC(=O)c2cc3c(OC)cc(OC)cc3[nH]2)cc1OC | inconclusive: 25.1 µM [quencher, single point] | –
9 | COc1ccc2c(c1)C(c1ccc([N+](=O)[O-])cc1)=NNC(c1ccco1)=N2 | inconclusive: 14.1 µM [quencher, side channel, partial curve] | –
10 | CC1CC(=O)NN=C1c1ccc(NCCO)c([N+](=O)[O-])c1 (centres undefined) | inconclusive: 6.31 µM [quencher, side channel, partial curve] | –
11 | COc1ccc(C2=NN(C(=O)c3ccccc3)C(c3ccc(OC)c(OC)c3)C2)cc1OC (centres undefined) | inconclusive: 31.6 µM [quencher, side channel, single point] | –
12 | COc1ccc(/C=C/C(=O)c2ccc(C(=O)/C=C/c3ccc(OC)c(OC)c3)cc2)cc1OC | inactive | –
13 | O=C(O)c1ccc(/C=N\Nc2ccc(S(=O)(=O)N3CCOCC3)cc2[N+](=O)[O-])cc1 | inconclusive: 2.24 µM [quencher, side channel, full curve] | –
14 | N#C/C(=C\C=C\c1ccccc1)C(=O)NCc1ccco1 | inconclusive: 15.8 µM [quencher, side channel, partial curve] | –
15 | COc1cc(CC(=O)OCC(=O)Nc2cc([N+](=O)[O-])ccc2F)cc(OC)c1OC | inconclusive: 12.6 µM [quencher, side channel, partial curve] | –
16 | c1cncc(-c2nc(NCc3cccs3)c3ccccc3n2)c1 | inactive | –
17 | N#CC1=C(N2CCCCC2)c2cc3c(n2C1=O)CCCC3 | inconclusive: 14.1 µM [quencher, side channel, partial curve] | –
18 | CCOCCCNS(=O)(=O)c1ccc(OC)c(Cl)c1Cl | inconclusive: 8.91 µM [quencher, side channel, single point] | –
19 | Cc1ccn2c(C(=O)N/N=C\c3ccc4c(c3)OCO4)c(C)nc2c1 | inconclusive: 31.6 µM [quencher, side channel, partial curve] | –
20 | CCN(CC)c1ccc(/C=N/NC(=O)c2ccc3c(c2)OCCO3)cc1 | inconclusive: 20 µM [quencher, side channel, partial curve] | –

Row | Compound | Potency | activity change, negative = inhibition
21 | COc1cc(C2NC(=O)NC3=C2C(=O)OC3)cc(OC)c1OC (centres undefined) | inactive | –
22 | Cc1ccc2cc(C)c3nnc(SCC(=O)c4cccs4)n3c2c1C | – | inconclusive: 29% [phenotype inactive]
23 | N#CCSc1nnc(-c2ccccc2)c(-c2ccccc2)n1 | inconclusive: 11.2 µM [quencher, side channel, partial curve] | –
24 | O=C1Nc2ccc([N+](=O)[O-])cc2C1(O)N1CCCCCC1 (centres undefined) | inconclusive: 10 µM [quencher, side channel, partial curve] | –
25 | Cc1nc(N2N=C(c3ccc(Cl)cc3)CC2c2ccco2)sc1C(=O)N(C)C (centres undefined) | inactive | –
26 | CCc1ccc(C2(O)CC(C(F)(F)F)=NN2C(=O)Cc2ccc([N+](=O)[O-])cc2)cc1 (centres undefined) | inactive | –
27 | Cc1ccc(/C=C2/C(=N)N3N=C(CC(=O)N4CCCC4)SC3=NC2=O)o1 | inconclusive: 3.55 µM [quencher, side channel, full curve] | –
28 | O=C(NCc1cc(Br)cc(Br)c1OC(=O)c1ccccc1[N+](=O)[O-])c1ccccc1 | inactive | –
29 | CO/N=C/CC(=O)c1ccc([N+](=O)[O-])c(CS(=O)(=O)c2ccc(Cl)cc2)c1 | inconclusive: 25.1 µM [quencher, side channel, partial curve] | –
30 | COC(=O)Cc1ccc(NC(=S)N2CCN(c3cccc(O)c3)CC2)cc1 | inconclusive: 0.0794 µM [fluorescent, side channel, full curve] | –
31 | O=C(NCCc1ccccc1)c1cnc2ccccc2n1 | inconclusive: 15.8 µM [quencher, side channel, partial curve] | –
32 | O=C(Nc1ccc(Nc2ccccc2)cc1)c1cc([N+](=O)[O-])ccc1Cl | inconclusive: 25.1 µM [quencher, partial curve] | –
33 | Cc1ccc(-n2cnc(N)c2C(=O)c2cccc([N+](=O)[O-])c2)cc1 | inconclusive: 15.8 µM [quencher, side channel, partial curve] | –
34 | CC(C)(C)C1CCC(OC(=O)C[N+]2(C)CCCC2)CC1 (centres undefined) | inactive | –
35 | Cn1ccc(=S)c2ccccc21 | inconclusive: 25.1 µM [quencher, side channel, partial curve] | –
36 | O=C1c2ccccc2NC(c2ccc([N+](=O)[O-])cc2)N1O (centres undefined) | inconclusive: 31.6 µM [quencher, single point] | –
37 | Cc1ccc(S(=O)(=O)Nc2ccc3oc(=O)sc3c2)c(C)c1 | inconclusive: 35.5 µM [fluorescent, side channel, partial curve, poor fit] | –
38 | COc1cccc(-c2cc3c(=O)n(-c4ccccc4)c(=S)[nH]c3s2)c1 | inactive | –
39 | COC(=O)c1cc(S(=O)(=O)Nc2ccc(C)c(F)c2)c[nH]1 | inactive | –
